Laboratory results reported in PubChem BioAssay AID686978 (National Center for Advancing Translational Sciences (NCATS), 2013).
The whole screen tested about 420,000 compounds, of which about 64,000 (15%) were called active. The inconclusive results got no clear call from the source; some entries with a clear call stand among them for comparison. The call rests on the fitted dose curve; in most records, active means well fitted inhibition curve with a large enough effect; inconclusive means small, poorly fitted or top-dose-only effect; inactive means flat fitted curve, though single readings scatter. Potencies of inconclusive entries are left out as doubtful fits.

Test: qHTS for Inhibitors of human tyrosyl-DNA phosphodiesterase 1 (TDP1): qHTS in cells in absence of CPT; further: nearly all actives have a fitted effect of over 55% in size
Settings: DT40 Tdp1-/- hTDP1 cells, no CPT, ATP luminescence, 48 h; activity change, negative = growth inhibition: at 46.2 µM (top of the series) unless noted
Outline: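 DT40 Tdp1-/-;hTDP1 cells, no CPT (DMSO vehicle only), 400 cells/well; compounds pin-transferred; ≥48 hr, 37 °C; CellTiter-Glo 30 min RT dark, luminescence read.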
On the % scale 0 is the no-effect control and ±100 the full control effect; potency means the concentration at half of the fitted maximal effect; tags describe the fitted curve by direction and shape.

Row | SMILES | Potency | activity change, negative = growth inhibition
1 | CC(=O)c1ccc(OC2(C)CCN(Cc3ccc4ccccc4c3)C2)cc1 (stereo not drawn) | inconclusive [inhibitor, single point] | –
2 | CCc1noc(C)c1C(=O)OC(C)C(=O)c1c(C)[nH]c2ccccc12 (stereo not drawn) | inconclusive [inhibitor, single point] | –
3 | CCOc1ccc(CCNC(=O)CSc2ncn[nH]2)cc1OCC | inactive | –
4 | Cc1cc(C)cc(OCC(=O)NNC(=O)CCN2C(=O)c3ccccc3C2=O)c1 | inactive | –
5 | COc1ccc(C=NCCCN2CCOCC2)cc1 | – | inconclusive: -33.4% [inhibitor]
6 | CCCN1CCC(NC(=O)Nc2ccc([N+](=O)[O-])cc2)CC1 | inconclusive [inhibitor, partial curve] | –
7 | S=C1NCCOCCNC(=S)NCCOCCOCCN1 | inactive | –
8 | O=C1CCCN1CCCNc1nc2c(S(=O)(=O)c3ccc(Br)cc3)nnn2c2ccccc12 | inactive | –
9 | COc1ccc(C(NC(=O)c2cccnc2)c2cc(Cl)c3cccnc3c2O)cc1OC (stereo not drawn) | active: 18.4 µM | –
10 | CCC1CCCCN1c1nc(-c2ccncc2)nc2ccccc12 (stereo not drawn) | inconclusive [inhibitor, single point] | –
11 | CC(C)C[C@H](NC(=O)/C=C/[C@H]1O[C@@H](n2ccc(=O)[nH]c2=O)[C@H](O)[C@@H]1O)C(=O)O | inactive | –
12 | CN(C)c1ccc(/C=N/n2c(-c3ccccc3Br)n[nH]c2=S)cc1 | inactive | –
13 | O=C(Nc1ccc(Cl)cc1)C1C2C=CC3(O2)C1C(=O)N(CCN1CCCCC1)C3C(=O)NC1CCCCC1 (stereo not drawn) | inactive | –
14 | COc1ccccc1NC(=O)CNC(c1ccccc1)c1ccccc1 | inconclusive [inhibitor, partial curve, poor fit] | –
15 | Cc1cccc(CC(=O)Nc2cccc(-c3nc4cccnc4s3)c2)c1 | inconclusive [inhibitor, partial curve] | –
16 | CCN1CCc2c(sc(-n3cccc3)c2C(C)NC(=O)Nc2ccccc2C)C1 (stereo not drawn) | active: 23.1 µM | –
17 | CCOC(=O)c1c(C)c2c(n1C)CCC/C2=N\O | inactive | –
18 | CC(Sc1nnc(Cc2ccccc2)n1C)C(=O)NC1CC1 (stereo not drawn) | inactive | –
19 | CC(C)(O)C#Cc1ccc(CN2CCN(Cc3ccsc3)C(CCO)C2)s1 (stereo not drawn) | inactive | –
20 | Cc1ccc(/C=C/C(=O)c2ccccc2)cc1 | inconclusive [inhibitor, partial curve, poor fit] | –
21 | CC1CCN(S(=O)(=O)c2cc(Br)cc(C(=O)NC3=NCCS3)c2)CC1 | inconclusive [inhibitor, single point] | –
22 | COC(=O)c1ccc(CSc2nnc(CS(=O)Cc3ccc(Br)cc3)n2-c2ccccc2)cc1 (stereo not drawn) | active: 13 µM | –
23 | COC(=O)C1=CN(Cc2cccs2)C=C(C(=O)OC)C1c1cccc(Cl)c1 | inconclusive [inhibitor, single point] | –
24 | Cc1ccc(C(=O)CSc2nnc3c4ccccc4nc(Cc4ccccc4)n23)cc1 | inconclusive [inhibitor, single point] | –

Row | SMILES | Potency | activity change, negative = growth inhibition
25 | O=[N+]([O-])c1ccc(/C=N/NC(=S)Nc2ccccc2)o1 | active: 23.1 µM | –
26 | COc1ccccc1CNC(=O)c1cc2ccc3ccc(C)[nH]c3c2n1 | active: 16.4 µM | –
27 | Cc1ccc(C)c(N2CCN(S(=O)(=O)c3csc(C(N)=O)c3)CC2)c1 | inconclusive [inhibitor, single point] | –
28 | CCn1nnc2cc(C(=O)Nc3cccc(C)c3C)ccc21 | active: 14.6 µM | –
29 | Cc1ccc2oc(-c3ccc(C)c(NC(=S)NC(=O)c4cccs4)c3)nc2c1 | inconclusive [inhibitor, single point] | –
30 | Cc1ccc(NC(=O)C2CCC2)cc1S(=O)(=O)N1CCCCCC1 | active: 25.9 µM | –
31 | O=C(CSc1nnc(Cc2ccccc2)o1)NCc1ccc2c(c1)OCO2 | inconclusive [inhibitor, single point] | –
32 | COCC(=O)NNS(=O)(=O)c1ccccc1[N+](=O)[O-] | inactive | –
33 | OC(CN1CCC(Cc2ccc(F)cc2)CC1)c1ccc(Cl)cc1 (stereo not drawn) | inactive | –
34 | CC(C)(C)c1ccc(Cn2nnc3c(=O)[nH]c(C4CCCN(C(=O)Cc5cccs5)C4)nc32)cc1 (stereo not drawn) | inconclusive [inhibitor, single point] | –
35 | Cc1ccc(NC(=O)N(CCCN2CCOCC2)Cc2cc3cc4c(cc3[nH]c2=O)OCO4)cc1 | inconclusive [inhibitor, single point] | –
36 | COc1ccc2nc(NNC(=O)COc3ccccc3)sc2c1 | inactive | –
37 | CCOCCCN1C(=O)C(=O)N(CC(=O)N2c3ccccc3NC(=O)CC2C)C1=O (stereo not drawn) | inactive | –
38 | Cc1cccc(Oc2ccc(NC(=O)CCC(=O)OCC(=O)c3ccc(Br)cc3)cc2)c1C | active: 11.6 µM | –
39 | CC(=O)C1=C(C)OC2(O)c3ccccc3C(=O)C12O (stereo not drawn) | active: 18.4 µM | –
40 | CN=C1S/C(=C\c2ccc(N3CCOCC3)c(F)c2)C(=O)N1C | active: 14.6 µM | –
41 | CC(C)CCNC(=O)C(CC(C)C)N(Cc1ccc2c(c1)OCO2)C(=O)c1snc(C(N)=O)c1N (stereo not drawn) | inconclusive [inhibitor, partial curve] | –
42 | COc1cc(/C=N/N=C2/NC(=O)C(CC(=O)O)S2)ccc1OCc1cccc(Cl)c1 (stereo not drawn) | inactive | –
43 | O=C(COc1ccccc1[N+](=O)[O-])Nc1ccc(N2CCN(C(=O)c3cccs3)CC2)cc1 | active: 6.51 µM | –
44 | CC(C)(C)OC(=O)N1CCC2(CC1)Oc1ccc(F)cc1C(=O)C21CC(c2ccccc2)=NO1 (stereo not drawn) | inconclusive [inhibitor, single point] | –
45 | COC(=O)CNc1cc(S(=O)(=O)N2CCCCC2)ccc1Oc1ccc(C(=O)OC)cc1 | inconclusive [inhibitor, single point] | –
46 | Cc1occc1C(=O)Nc1cccc2ccccc12 | inconclusive [inhibitor, single point] | –
47 | COC(=O)C1=C(C(=O)OC)[C@@H]2N(C)c3ccccc3[C@@]23C[C@@H](C(=O)OC)N(C(=O)CC(C)C)C3=N1 | inconclusive [inhibitor, partial curve] | –
48 | Cc1cccc(NC(=S)NNC(=O)c2ccccc2OC(F)F)c1 | active: 29.1 µM | –
